According to the BET-seq Pho4 binding data (Le et al. 2018):
This is one part of the list. The energies were worked out here from pooled read counts, against the library average; single values are noisy.

target: T1, Pho4 (S. cerevisiae) (UniProt P07270); experiment: relative binding free energy (BET-seq); higher = weaker binding; details: reference: library average
T1 sequence: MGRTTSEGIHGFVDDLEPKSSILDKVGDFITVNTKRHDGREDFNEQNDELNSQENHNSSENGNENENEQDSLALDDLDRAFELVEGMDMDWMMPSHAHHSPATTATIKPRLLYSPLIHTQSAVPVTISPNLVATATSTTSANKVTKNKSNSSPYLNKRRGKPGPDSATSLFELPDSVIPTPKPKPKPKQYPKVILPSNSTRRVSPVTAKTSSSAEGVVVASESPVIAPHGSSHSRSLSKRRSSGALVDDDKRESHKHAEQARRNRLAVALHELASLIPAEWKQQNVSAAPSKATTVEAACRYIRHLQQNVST

Sequence	relative binding free energy
TTAGACACGTGATTGG	0.23 kcal/mol
GAGTTCACGTGTGTAG	0.21 kcal/mol
GGATTCACGTGGTAAT	0.07 kcal/mol
AGGTACACGTGGAGAT	0.1 kcal/mol
GGTAGCACGTGGGGAG	-0.09 kcal/mol
ATTTACACGTGGTTAT	0.16 kcal/mol
AATTACACGTGTGTCG	0.26 kcal/mol
TTCTTCACGTGTCGGT	0.27 kcal/mol
TTAGACACGTGGGACG	-0.13 kcal/mol
CGGCACACGTGTAGGG	0.1 kcal/mol
GGCTTCACGTGTGTTC	0.4 kcal/mol
ATAGTCACGTGATTAG	0.19 kcal/mol
CTGGTCACGTGATGTC	0.27 kcal/mol
GGTTACACGTGTAAGA	0.33 kcal/mol
GAGACCACGTGGGTGG	-0.14 kcal/mol
CTTGTCACGTGTTGTC	-0.08 kcal/mol
TTGTGCACGTGGTGAC	-0.21 kcal/mol
GTTTGCACGTGCAAGT	-0.01 kcal/mol
GTTTGCACGTGTATTT	0.19 kcal/mol
GGATTCACGTGGGAGA	0.34 kcal/mol
GATGGCACGTGAGGTC	0.26 kcal/mol
TGATGCACGTGGGGTT	-0.23 kcal/mol
GAGGTCACGTGGTCTT	0.06 kcal/mol

Sequence	relative binding free energy
AATAGCACGTGGGCAG	-0.25 kcal/mol
AGATGCACGTGAAAGG	0.21 kcal/mol
ATTGTCACGTGTAGAA	-0.01 kcal/mol
TGTAGCACGTGGGGCT	-0.19 kcal/mol
GATGCCACGTGATTTG	0.23 kcal/mol
TTGGGCACGTGGCGCA	-0.33 kcal/mol
TCGGGCACGTGACTGT	0.1 kcal/mol
ATAGTCACGTGGAGAA	0.07 kcal/mol
TGAGTCACGTGACGAG	0.22 kcal/mol
GGAGGCACGTGGTAGC	-0.14 kcal/mol
ATGTTCACGTGGTTTA	0.16 kcal/mol
GTTCGCACGTGAAGGC	0.41 kcal/mol
CAGTACACGTGTAGTG	0.09 kcal/mol
GGGTTCACGTGCGGGT	0.28 kcal/mol
GGATGCACGTGTGTGG	0.05 kcal/mol
TATCTCACGTGGGGTG	0.16 kcal/mol
GAAGACACGTGATAGT	0.29 kcal/mol
TGAAGCACGTGGGGAT	-0.15 kcal/mol
TTATTCACGTGTCGCG	0.22 kcal/mol
CGGTGCACGTGGTTGT	-0.03 kcal/mol
TTTTGCACGTGAGCTG	0.2 kcal/mol
CTTCTCACGTGAGTTT	0.42 kcal/mol
TGTTTCACGTGTTTCT	0.32 kcal/mol

Sequence	relative binding free energy
CTAGTCACGTGTGAGT	0.19 kcal/mol
AGGGTCACGTGACGGA	0.14 kcal/mol
GACGGCACGTGAGTGT	0.31 kcal/mol
GATTTCACGTGTGGGT	0.48 kcal/mol
GAGTCCACGTGAGAGG	0.42 kcal/mol
GGTAACACGTGTGTGG	0.02 kcal/mol
GAGGTCACGTGAACGT	0.24 kcal/mol
TTATTCACGTGAGAGA	0.4 kcal/mol
TGTGCCACGTGGTCAG	-0.08 kcal/mol
AGTCTCACGTGAGGTA	0.16 kcal/mol
AGGGACACGTGGGGAC	-0.03 kcal/mol
GGTGGCACGTGCGAGT	-0.04 kcal/mol
TATTGCACGTGTAGAT	0.2 kcal/mol
GTAGGCACGTGGAAGG	0.05 kcal/mol
CATGCCACGTGGAGGT	0.01 kcal/mol
GTTTGCACGTGTGCGG	0.02 kcal/mol
TAAGTCACGTGCAGTT	0.17 kcal/mol
TGGATCACGTGGTATT	0.17 kcal/mol
TAGAACACGTGGTGTT	-0.05 kcal/mol
AGTTTCACGTGTGAGC	0.27 kcal/mol
AGTATCACGTGCGTGC	0.16 kcal/mol
GGATGCACGTGAGTGA	0.19 kcal/mol
AGTCGCACGTGGGGGC	-0.13 kcal/mol

Sequence	relative binding free energy
GGAGGCACGTGACGGA	-0.01 kcal/mol
TTTTGCACGTGGTTTC	-0.06 kcal/mol
TGGGCCACGTGTTGTG	-0.09 kcal/mol
GTGGGCACGTGTGGCG	-0.05 kcal/mol
ATCGACACGTGTGTGT	0.04 kcal/mol
AGTTGCACGTGAGGAA	0.13 kcal/mol
CGGTACACGTGAATTG	0.31 kcal/mol
GTCGGCACGTGTTATG	-0.02 kcal/mol
AGTAGCACGTGTATGT	0.08 kcal/mol
TAATTCACGTGCGTTG	0.06 kcal/mol
GCGGACACGTGTGTGA	0.09 kcal/mol
GCATCCACGTGTGGGG	0.19 kcal/mol
GAAGGCACGTGTTGGC	-0.09 kcal/mol
AGTTACACGTGAGGGC	0.21 kcal/mol
TAGGGCACGTGGGTCG	-0.17 kcal/mol
AGCATCACGTGTGGGG	-0.02 kcal/mol
GTTCGCACGTGGAAGA	0.22 kcal/mol
AATGTCACGTGTGTAT	0.09 kcal/mol
GTGTGCACGTGGAGAA	0 kcal/mol
GGGCTCACGTGCTTTG	0.31 kcal/mol
AGTGACACGTGTATTT	-0.04 kcal/mol
TTTCGCACGTGTCGTA	0.1 kcal/mol
ATTCACACGTGGATGT	0.11 kcal/mol

Sequence	relative binding free energy
TGGACCACGTGTGGGC	0.02 kcal/mol
AGATTCACGTGGAGTT	0.36 kcal/mol
GGGTACACGTGTGACG	0.13 kcal/mol
ACGGACACGTGGGCGT	0 kcal/mol
AGTGGCACGTGTGATG	0 kcal/mol
CAATACACGTGGGTTA	0 kcal/mol
ATATCCACGTGGTGTG	-0.13 kcal/mol
GGTGTCACGTGCTATA	0.08 kcal/mol
GAATGCACGTGAGGAT	0.24 kcal/mol
TCGGGCACGTGTTAAT	-0.15 kcal/mol
CTGGGCACGTGGACTG	-0.16 kcal/mol
TTGAGCACGTGGAGCT	0.05 kcal/mol
TCCATCACGTGGGGTG	-0.02 kcal/mol
CGGGGCACGTGAATAT	0.36 kcal/mol
TGGTCCACGTGGTGGC	-0.21 kcal/mol
TTGTACACGTGATGTT	0.19 kcal/mol
ATAGGCACGTGGATGT	-0.06 kcal/mol
GGGAGCACGTGTAATG	0.09 kcal/mol
GTATTCACGTGAGGCT	0.24 kcal/mol
TGAATCACGTGAGAGT	0.24 kcal/mol
CTTGCCACGTGGAGTG	-0.08 kcal/mol
AGTGTCACGTGTCTTA	0.1 kcal/mol
TTGTGCACGTGGTGGA	-0.09 kcal/mol
